Test results as given in US20250222123A1, “COMPOUND COMPRISING FC-BINDING UNIT, AND CONJUGATE PREPARED USING SAME” (ABTIS CO., LTD., priority 2022, published 2025).

B1: Antibody-A: antibody comprising a light chain of SEQ ID NO: 26 and a heavy chain of SEQ ID NO: 25 (antibody)
heavy: QVQLVESGGGVVQPGRSLRLSCAASGFSLTTYGVHWVRQAPGKGLEWVAVIWAGGSTNYNSALMSRFTISRDNSKNTLYLQMNSLRAEDTAVYYCARAAYYGNGLDYWGQGTMVTVSS[… human IgG1 constant region …]
light: DIVMTQSPLSLPVTPGEPASISCKSSQTLLNSGNQKNYLTWYLQKPGQSPQLLIYWASTGESGVPDRFSGSGSGTDFTLKISRVEAEDVGVYYCQNAYFYPFTFGGGTKVEIKRTVAAPSVFIFPPSDEQLKSGTASVVCLLNNFYPREAKVQWKVDNALQSGNSQESVTEQDSKDSTYSLSSTLTLSKADYEKHKVYACEVTHQGLSSPVTKSFNRGEC
modifications: anti-CLDN 18.2 antibody Heavy chain; anti-CLDN 18.2 antibody Light chain
B2: ADC-A (conjugate)
heavy: B1 heavy
light: B1 light

What was measured:
MOCK CHO-K1 = test: Cell-based ELISA, MOCK CHO-K1 (empty vector); type: binding; details: MOCK CHO-K1 negative control
Description: (§1) A CHO-K1 cell line into which a gene (SEQ ID NO: 29) encoding the claudin 18.1 protein (CLDN18.1) was transiently transfected (hereinafter, referred to as “Claudin 18.1 CHO-K1”), a CHO-K1 cell line into which a gene (SEQ ID NO: 30) encoding the claudin 18.2 protein (CLDN18.2) was transiently transfected (hereinafter, referred to as “Claudin 18.2 CHO-K1”), and a CHO-K1 cell line into which only a MOCK vector (empty vector) was transiently transfected (hereinafter, referred to as “MOCK CHO-K1”) were prepared. At this time, a pcDNA3.1 vector was used in the case of Claudin 18.1 CHO-K1, and a pcDNA3.1 (+) vector was used in the case of Claudin 18.2 CHO-K1. […]
(§2) Transient transfection was performed according to the TransIT2020 manual, the transfected cells were plated on a 96-well plate for culture, and then treated with antibody-A and ADC-A, respectively, and then cell-based enzyme-linked immunosorbent assay (ELISA) was performed, and optical density (OD) values were measured. At this time, the measured values are illustrated in FIGS. 34 to 36.
(§3) The measured results were used for regression analysis in GraphPad PRISM® 9.0 software to calculate EC50 and Bmax. The cell binding strength of antibody-A and ADC-A was evaluated based on the calculated values.

[1] = Body weight and histological observation in the SNU601 tumor model mice; type: in vivo, BALB/c nude mouse; details: for effects on the changes in body weight (in words): during the study period (28 days); for histological gastric lesions (in words): even in the highest concentration administration group, G8 (2 mg/kg)
Description: For Tumor Development, an SNU601 Cell Line (1×10^7) was Mixed with Serum-Free medium and Matrigel and the resulting mixture was inoculated subcutaneously into the left flank of each BALB/c nude mouse (purchased from Charles River Laboratories Japan Inc.). Each mouse was randomly assigned to eight groups (G1 to G8) on the basis that the average tumor volume in each group reached about 155 mm^3.
All animals were observed twice a day for mortality, abnormal symptoms, pain and signs of stress, and once a day for clinical signs. The change in body weight and the tumor volume were measured three times a week, and the tumor weight was determined after autopsy. The tumor volume, tumor difference, and tumor growth inhibition were calculated as follows: […]
At this time, the measured tumor volumes are illustrated in FIG. 55. The measured body weights are illustrated in FIG. 56. The shape of the tumors after autopsy was the same as that in FIG. 57. The tumor weights determined after autopsy is illustrated in FIG. 58.
Numerical data regarding the performance of the study was calculated as mean and standard deviation. Group variances were compared using the Bartlett's test at a 0.05 significance level for each parameter. When the difference between group variances was not significant, a parametric one-way analysis of variance (ANOVA) was performed. When a significant difference between means was indicated by ANOVA (p≤0.05), group mean comparisons between the control and each treatment group were performed using Dunnett's test. […] When significance was identified by the Kruskal-Wallis test (p<0.05), the significance of the difference between the control and each treatment group was assessed using the Dunn's multiple comparison test. Significance was reported at the 0.05, 0.01 and 0.001 levels for the comparison of each group. All statistical analyses were performed using GraphPad PRISM® Version 5.0.

[2] = biological target: T1, claudin 18.1 protein (CLDN18.1) (Homo sapiens, UniProt P56856); test: Cell-based ELISA, Claudin 18.1 CHO-K1; type: binding
T1 construct: expressed in transfected cells; host or cells: CHO-K1, transient, pcDNA3.1 vector
Description: as §1, §2, §3

MIA PaCa-2 (CLDN18.2-) = test: Cell-based ELISA, CLDN18.2-negative cancer cells; type: binding; details: parental MIA PaCa-2, CLDN 18.2-negative cell line
Description: (§4) Four types of cell lines (MIA PaCa-2˜CLDN18.2, PATU8988S, parental MIA PaCa-2 (CLDN18.2-), and SNU601) were prepared. At this time, MIA PaCa-2˜CLDN18.2 and PATU8988S are CLDN18.2-positive pancreatic cancer cell lines. MIA PaCa-2 (CLDN18.2-) is a CLDN18.2-negative pancreatic cancer cell line. SNU601 is a CLDN18.2-positive gastric cancer cell line.
(§5) The prepared cell lines were cultured in DMEM containing 10% FBS and 1% penicillin/streptomycin (MIA PaCa-2˜CLDN18.2, MIA PaCa-2 (CLDN18.2-)), RPMI1640 containing 10% FBS and 1% penicillin/streptomycin (SNU601), and DMEM comprising 5% FBS, 5% horse serum, 1% penicillin/streptomycin, and […] L-glutamine (PATU8988S) in an incubator under the conditions of 37° C. and 5% CO2.
(§6) The prepared cell lines were plated on 96-well culture plates, treated with antibody-A, ADC-A, antibody-B, and ADC-B, respectively, and then cell-based ELISA was performed, and OD values were measured. At this time, the measured values are illustrated in FIGS. 38 to 41.
(§7) The measured results were used for regression analysis in GraphPad PRISM® 9.0 software to calculate EC50 and Bmax. The cell binding strengths of antibody-A, ADC-A, antibody-B, and ADC-B to each cell line were evaluated based on the calculated values.

[3] = biological target: T2, CLDN18.2 virus-like particle (VLP) (Homo sapiens, UniProt P56856); test: Indirect ELISA on CLDN18.2 virus-like particle (VLP); type: binding; details: CLDN18.2 (antigen protein), VLP-coated plate
T2 construct: purchased CUSABIO TECHNOLOGY LLC CSB-MP005498HU (A5)
Description: To confirm the binding strength to an antigen, a CLDN18.2 virus-like particle (VLP) in which the claudin 18.2 protein (CLDN18.2) was expressed was prepared. At this time, CLDN18.2˜VLP is CSB-MP005498HU (A5) from CUSABIO TECHNOLOGY LLC.
After a 96-well plate was coated with the CLDN18.2 VLP for ELISA and treated with antibody-A and ADC-A, respectively, indirect ELISA was performed to measure OD values. At this time, the measured values are illustrated in FIG. 37.
The measured results were used for regression analysis in GraphPad PRISM® 9.0 software to calculate EC50 and Bmax. The antigen binding strengths of antibody-A, ADC-A, antibody-B, and ADC-B were evaluated based on the calculated values.

MIA PaCa-2˜CLDN18.2 = test: Cell-based ELISA, binding to antigen-expressing cancer cells
Description: as §4, §5, §6, §7

PATU8988S = test: as above; details: PATU8988S (CLDN18.2+)
Description: as §4, §5, §6, §7

[4] = 2 mg/kg, 1 time/Day1, Intravenous Injection (G2, G8)

| Molecule | binding to cell line (in words) (MOCK CHO-K1) | Weight (g) (Average ± Standard Deviation) Day 1 [1, 4] | Weight (g) (Average ± Standard Deviation) Day 28 [1, 4] | effects on the changes in body weight (in words) [1] | histological gastric lesions (in words) [1] | binding to cell line (in words) [2] | binding to cell line (in words) (MIA PaCa-2 (CLDN18.2-)) | Bmax [3] | Bmax (MIA PaCa-2˜CLDN18.2) | Bmax (PATU8988S) | Weight (g) (Average ± Standard Deviation) Day 1 ([1]; 1 mg/kg, 2 times/Day1, Day7, Intravenous Injection (G5)) |
| --- | --- | --- | --- | --- | --- | --- | --- | --- | --- | --- | --- |
| B1 | do not bind | 20.2 ± 1.3 g | 23.0 ± 1.5 g | no effects | not observed | do not bind | did not bind | 3.229 | 3.534 | 1.743 | – |
| B2 | do not bind | – | – | no effects | not observed | do not bind | did not bind | 2.995 | 3.354 | 1.607 | 20.0 ± 1.0 g |
